This is an account of results in publication PMC4383008.

By UniProt entry, the sequences of proteins in these tests, tags left out. Where a name states a change or a piece, a line headed by the entry shows the natural chain unless it says otherwise. Chains listed by the source or under a name are the forms on record and can include a tag or linker.
UniProt Q9EP80: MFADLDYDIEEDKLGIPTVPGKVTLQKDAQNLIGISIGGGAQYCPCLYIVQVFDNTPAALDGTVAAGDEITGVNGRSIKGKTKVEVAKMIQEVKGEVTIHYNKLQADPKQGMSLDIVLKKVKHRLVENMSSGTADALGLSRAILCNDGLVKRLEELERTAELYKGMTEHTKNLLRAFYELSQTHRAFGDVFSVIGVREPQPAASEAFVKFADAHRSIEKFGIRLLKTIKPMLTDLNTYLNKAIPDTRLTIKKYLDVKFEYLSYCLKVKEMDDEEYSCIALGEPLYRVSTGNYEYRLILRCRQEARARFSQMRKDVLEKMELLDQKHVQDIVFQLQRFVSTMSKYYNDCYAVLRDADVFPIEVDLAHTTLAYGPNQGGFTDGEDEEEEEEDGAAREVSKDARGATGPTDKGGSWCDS
full-length myc-PICK1 with the K27D28AA substitutions (myc-KDAA) (Q9EP80, form named): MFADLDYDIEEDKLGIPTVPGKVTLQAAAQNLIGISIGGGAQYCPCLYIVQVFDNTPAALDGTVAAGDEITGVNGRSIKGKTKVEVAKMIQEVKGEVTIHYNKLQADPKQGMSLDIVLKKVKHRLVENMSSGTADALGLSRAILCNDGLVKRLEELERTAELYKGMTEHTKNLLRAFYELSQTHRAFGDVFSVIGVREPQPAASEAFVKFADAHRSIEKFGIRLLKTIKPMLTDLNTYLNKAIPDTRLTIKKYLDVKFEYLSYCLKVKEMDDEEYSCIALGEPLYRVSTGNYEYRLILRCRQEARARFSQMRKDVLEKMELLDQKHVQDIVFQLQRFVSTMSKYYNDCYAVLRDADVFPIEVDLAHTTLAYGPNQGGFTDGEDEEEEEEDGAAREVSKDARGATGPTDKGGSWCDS
UniProt Q62083: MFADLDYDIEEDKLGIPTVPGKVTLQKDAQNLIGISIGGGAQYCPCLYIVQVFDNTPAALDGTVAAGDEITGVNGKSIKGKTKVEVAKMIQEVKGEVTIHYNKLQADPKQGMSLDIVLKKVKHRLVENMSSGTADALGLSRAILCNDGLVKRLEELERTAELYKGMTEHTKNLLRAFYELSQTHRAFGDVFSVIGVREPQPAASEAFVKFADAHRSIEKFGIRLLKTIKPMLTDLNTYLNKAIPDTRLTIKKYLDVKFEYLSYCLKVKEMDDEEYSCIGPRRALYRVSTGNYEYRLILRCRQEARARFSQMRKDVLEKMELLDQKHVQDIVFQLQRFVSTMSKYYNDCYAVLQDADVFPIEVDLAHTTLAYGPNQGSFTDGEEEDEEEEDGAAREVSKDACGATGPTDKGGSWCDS

Residue numbers refer to the chain shown, from its start. Results are given in words; binding and its absence hold for the method and conditions named. Binding seen in cells or lysates may run through a third protein. Some binding calls cover weakened binding; strength is not graded here. For part of these data: Sequences can lack the tags named with a protein.

For assay [1], the target named is T1, GST-RAB39B (mouse) (UniProt Q8BHC1).
T1 sequence: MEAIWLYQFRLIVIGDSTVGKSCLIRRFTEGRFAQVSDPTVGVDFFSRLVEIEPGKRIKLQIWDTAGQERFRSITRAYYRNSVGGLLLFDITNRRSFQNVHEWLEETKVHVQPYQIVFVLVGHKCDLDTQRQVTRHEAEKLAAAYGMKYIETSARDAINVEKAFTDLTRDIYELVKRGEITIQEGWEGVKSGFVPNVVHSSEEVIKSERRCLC
The assay is described as follows: pull-down; 40 μg GST-RAB39B on glutathione-Sepharose 4B beads in presence of GTPγS, 10 μl of the in vitro translational reaction of PICK1, 3 h at 4 °C; only the target purified.

Assay [2] has as its target T1, GST-RAB39B (mouse). The assay is described as follows: pull-down; 40 μg GST-RAB39B on glutathione-Sepharose 4B beads in presence of GTPγS, 8 mg mouse brain lysate (HKT or RIPA buffer), 3 h at 4 °C; only the target purified.
The target in assay [3] is T2, GST-RAB39B Q68L (mouse) (UniProt Q8BHC1).
T2 sequence: T1 sequence with Q68L
Briefly: pull-down; 40 μg GST-RAB39B S22N or GST-RAB39B Q68L on glutathione-Sepharose 4B beads, 8 mg mouse brain lysate (HKT or RIPA buffer), 3 h at 4 °C; only the target purified.

The target of assay [4] is T3, GST-RAB39A (UniProt Q8BHD0).
T3 sequence: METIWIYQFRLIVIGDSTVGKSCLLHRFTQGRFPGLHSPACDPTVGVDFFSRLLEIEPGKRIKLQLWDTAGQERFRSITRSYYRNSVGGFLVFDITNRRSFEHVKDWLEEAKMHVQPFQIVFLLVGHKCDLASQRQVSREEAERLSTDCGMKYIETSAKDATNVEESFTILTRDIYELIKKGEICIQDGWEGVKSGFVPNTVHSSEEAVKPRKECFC
The assay is described as follows: pull-down; GST-RAB39A as bait; input and nucleotide not told in the text (Supplementary Fig. 1d); only the target purified.

Assay [5] deals with GST-PICK1 (UniProt Q9EP80). Briefly: pull-down; 80 μg GST-PICK1 on glutathione-Sepharose 4B beads, 16 mg mouse brain lysate in HKT buffer, 3 h at 4 °C; only the target purified.
The target of assay [6] is T1, GST-RAB39B (mouse). The assay is described as follows: pull-down; 40 μg GST-RAB39B on glutathione-Sepharose 4B beads in presence of GTPγS, 2 mg lysate (RIPA buffer) of COS7 cells expressing PICK1 constructs, 3 h at 4 °C; only the target purified.

For the substance “PICK1 in vitro transcribed and translated (pGEM-PICK1) (from UniProt Q9EP80 1-416)”, in assay [1], the binding entry is “binds”.
“PICK1, endogenous in mouse brain lysate (from UniProt Q62083 1-416)”: the values for the binding entry in assay [2], in assay [3] and in assay [4] were “binds”, “binds” and “no binding”, respectively.
With “PKCα, endogenous in mouse brain lysate (from UniProt P20444 1-672) (enzyme)”, in assay [5], the binding entry is reported as “binds”.
As for “flag-tagged PICK1 lacking the PDZ domain (flag-Δ121) (from UniProt Q9EP80 122-416) (domain or fragment)”, the binding entry in assay [6] was “no binding”.
As for “full-length myc-PICK1 with the K27D28AA substitutions (myc-KDAA) (from UniProt Q9EP80 1-416)”, the binding entry in assay [6] was “no binding”.
In the case of “full-length myc-PICK1 with the K83A substitution (myc-K83A) (from UniProt Q9EP80 1-416)”, the binding result in assay [6] is listed as “binds”.
Take “myc-tagged PDZ domain of PICK1 (myc-PDZ; aa 23–99) (from UniProt Q9EP80 23-99) (domain or fragment)”: the binding entry in assay [6] is reported as “binds”.
